Results: publication PMC12136788
The list shows a part of the results.

T1: UNK ZnF1-3 (human, UniProt Q9C0B0 31-174)
T1 sequence: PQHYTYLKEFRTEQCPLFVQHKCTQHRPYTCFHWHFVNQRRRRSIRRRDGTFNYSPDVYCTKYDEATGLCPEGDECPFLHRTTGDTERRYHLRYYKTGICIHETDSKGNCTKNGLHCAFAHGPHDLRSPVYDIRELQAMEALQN

B1: 49420930_49422925_1199_CDS_ENSG00000166200_ENST00000299259|human|control|control (ssRNA)
RNA: GGGAGUUCUACAGUCCGACGAUCCACAUCAGCUACAUCUAUGUUUAACUCCUUAGAAAUAAAAGGAAUAUGUAUUCUUGUGUAAGGCUUAAUUAAUUUUAUAAGCACUUGUGUUCUGAUGUUUCGCAAAAGCUCUUCAAUGUGCAACAGAGGAUUGAGCAUCA
B2: chr14:76904430:76904431:+_ENSMUSG00000022010_ENSMUST00000022587|mus_mus|mus_mus_mus_hu_True|28_88 (ssRNA)
RNA: GGGAGUUCUACAGUCCGACGAUCUGCAGCCAAAAACACCCUCGUGGCGGGAGGGAGGGAACACCAGCAGCCUUGUAUAAGCUAGAUAAAAUCUUCUGGCUUUCCGCAGCUCAGGGCGAAACAGAAAACGGCAGCCCUAAUUUACAACAGAGGAUUGAGCAUCA
B3: chr11:102301342:102301343:-_ENSMUSG00000034685_ENSMUST00000049057|mus_mus|FALSE|FALSE (ssRNA)
RNA: GGGAGUUCUACAGUCCGACGAUCAGGCACCUCUGUCCCAUUGCCUGUUAGCAGGUGGACGCUCACAGCAGCCAGUGGUAUCAGCUCCAGCCAGGAGCCAUUGCCUGAGCUGGAGGCCUCGGUCCCCAGGAAGGCAGGGAAAGCCAACAGAGGAUUGAGCAUCA
B4: chr11:60966614:60966615:-_ENSMUSG00000042506_ENSMUST00000041683|mus_hu|FALSE|FALSE (ssRNA)
RNA: GGGAGUUCUACAGUCCGACGAUCACUGAGCAGUGAGUAGCAGCUGCCACUGUCACUACCCCCUCCCCAGCCCAGCCAGCUAAGGAGCUGGGUCUGGUCCCCACCAGCUUCUCCAUGGCCUGUGAGCUAAGAAUAGGUUUCACGCAACAGAGGAUUGAGCAUCA
B5: chr10:110404880:110404881:-_ENSMUSG00000035798_ENSMUST00000041723|mus_mus|FALSE|FALSE (ssRNA)
RNA: GGGAGUUCUACAGUCCGACGAUCGUUUUUGUGAUACUUGUCACCAAGGUUAACUGAAACAUUGAAUGUUAAAAGCAAUCUAGUUGGAUCCACACUAUGUGUUCUAUAAGCUGCCCACAUUAAAGGGGUCAUUCCAUUCUGAUCCAACAGAGGAUUGAGCAUCA
B6: chr3:185639903:185639904:-_ENSG00000136527_ENST00000456380|hu_hu|FALSE|FALSE (ssRNA)
RNA: GGGAGUUCUACAGUCCGACGAUCUUGUUAUAGAGAAAUCAACUCUGAUCCUACGCCCAUCAAGCUCCAUUCCAUUGGCACGUUCUUUAGCUUCCUUGGCAUCAUCUACAUUUUCAAAAUAUACAAAGGCAAAUCCUCUUGAACCAACAGAGGAUUGAGCAUCA
B7: chr11:46405157:46405158:+_ENSG00000110492_ENST00000395566|hu_hu|hu_hu_hu_mus_False|58_78 (ssRNA)
RNA: GGGAGUUCUACAGUCCGACGAUCCCCUCCCCACUUUGGGCACUUGGUGUGGGCGUGAAGGCAGGGCCGUGAUUGACAAAGCUAACGGGAAGACAAAAGGCACUGGUGGGUUAUAUCUUGGGCCUGUGGGAGAGGAGGGCUCCGCAACAGAGGAUUGAGCAUCA
B8: chr9:14812383:14812384:-_ENSMUSG00000031934_ENSMUST00000164273|mus_mus|mus_mus_mus_hu_True|48_68 (ssRNA)
RNA: GGGAGUUCUACAGUCCGACGAUCAUAGCCCAGGUAGAUACACGCUAACAGUAUAAUGAUGAGUGUCACCAGCCGGCAGCUAAUGUAUUUCAUGAUUAAAUUAUUAGAAUUUUUCUUUGUCUUCAAGUACUGCUCCACAAUUGGCAACAGAGGAUUGAGCAUCA
B9: chr13:74460350:74460351:-_ENSMUSG00000021577_ENSMUST00000022062|mus_hu|FALSE|FALSE (ssRNA)
RNA: GGGAGUUCUACAGUCCGACGAUCUCACAAGAAUGAAGCAAGGGACAAAGGUAAGUGCCACGCUCCCUGGCCACUGGGUUCCUGGCAAGCUCCCAGCCACUAGGUGCCAAUCUCCCUUCAAUGUACUCCUUCUUCCCCAGAGUGCAACAGAGGAUUGAGCAUCA
B10: chr2:241070358:241070359:-_ENSG00000172428_ENST00000607357|hu_hu|motif|central (ssRNA)
RNA: GGGAGUUCUACAGUCCGACGAUCGAACAGAAUCAUCUAGGUCGUUAAGAACAGUCUUAUCUUUCUGGUUAACCAGGUCCGGAAUUCAAGGGAUUUCCACGUGUUCUUUAAAACCACCUGAAACUGUCCUGCGCAGGCUCACACCAACAGAGGAUUGAGCAUCA
B11: chr11:55313332:55313333:+_ENSMUSG00000018583_ENSMUST00000018727|mus_mus|motif|central (ssRNA)
RNA: GGGAGUUCUACAGUCCGACGAUCCUCUUUACAAUCUAUUCCUCCUAAAGUAUCAUUCCGGAAAACUGGGAAUGAAGGACGGAGGGGUCAGGGGAGGAAAGGGGGUUGGGAGCACACACCAUGAACACAAGCGAAAUGAAAAUUCAACAGAGGAUUGAGCAUCA
B12: chr1:160275524:160275525:-_ENSG00000122218_ENST00000241704|hu_mus|motif|central (ssRNA)
RNA: GGGAGUUCUACAGUCCGACGAUCACACAGAGCAUCCAGCUUGCGGUUACAGAUCACAAUGGCAUGCUUGGCCAGUAACGCGGCAUGAGACAUGUCUGCCGACCAGAUAACAUAUUUCACCUUGGAAAUCUUCACUGAUGCCAGCAACAGAGGAUUGAGCAUCA
B13: chr6:31457689:31457690:+_ENSMUSG00000025609_ENSMUST00000142469|perfect_dup|FALSE|FALSE (ssRNA)
RNA: GGGAGUUCUACAGUCCGACGAUCGAUGAGGUCUACCAGGUUGCCUUUAGGAGGAGUCAUGCUGUCAGGAAAGAAAUUUACUAAGGUGUCAAAGAGCUGAGUUCUUUGAGCAUAGGUGUGAUCCACAUCAGAAAAGCCCAGAGCCAACAGAGGAUUGAGCAUCA
B14: chr7:141441981:141441982:+_ENSG00000106028_ENST00000265304|hu_mus|hu_hu_hu_mus_False|8_8 (ssRNA)
RNA: GGGAGUUCUACAGUCCGACGAUCCUCAUGUCUUACAAACUGACGAAAUACCUGUAACACAGGUCUUCGAAACAUGGCUUCUGUUUUUCUUACAACCUAAUCUUUAGGCUUUUCCUAAAGGAAAGAAUAACCCGAGCAAAAUGACAACAGAGGAUUGAGCAUCA
B15: chr10:33214929:33214930:-_ENSG00000150093_ENST00000302278|hu_mus|FALSE|FALSE (ssRNA)
RNA: GGGAGUUCUACAGUCCGACGAUCAACAAGUUCAUUGAAAAACUCUCCUCUGUCAGUAAGACUAAGCACAUUUUUGUAGCUAAAUGGGCUGGUGCAGUUUUGUUCACUUGUACAAGGAUUUCUUAGCUUUGCUGGGGUUGUGCUCAACAGAGGAUUGAGCAUCA
B16: chr10:7421922:7421923:+_ENSMUSG00000040021_ENSMUST00000165952|mus_mus|FALSE|FALSE (ssRNA)
RNA: GGGAGUUCUACAGUCCGACGAUCAUCAGACUGACCACCACCAUUCUGAACUCCAGGUCGCCCUGGUGUAAAGUUAAAUUUGCUAGUACUCUGCAUGAUGAUGGGUUGUCUACCAACUGGAACAGAACUAAUGGCCCUCUGAGCCAACAGAGGAUUGAGCAUCA
B17: chr14:56114876:56114877:+_ENSMUSG00000022211_ENSMUST00000076236|mus_hu|FALSE|FALSE (ssRNA)
RNA: GGGAGUUCUACAGUCCGACGAUCGAGGGCAUUGGCCUCAUCCGUGGCGAGGAGCCCAGGAUUCUUGCUCAGGUCCAGGUAUCGAAGGGAGCUGGCAAAUGCUGGGUUUGCCCCGAAGGUCUGGCCGAGUGCCUGGAGCCCUCGCAACAGAGGAUUGAGCAUCA
B18: chr12:39763582:39763583:-_ENSG00000139116_ENST00000544797|hu_mus|hu_hu_hu_mus_False|58_108 (ssRNA)
RNA: GGGAGUUCUACAGUCCGACGAUCCUCUAAGAAUUGGGCAUUCACUUUGAAUUCAGGAGGGGGCAGCCCGUUUUUAAUUGCUAUGUGCUUUUUCUCAUCAAUACUCUUGAACAGGUGUCUAACAGCACGAGAGAUGAUGCCCUGCAACAGAGGAUUGAGCAUCA
B19: chr15:81535460:81535461:-_ENSMUSG00000022391_ENSMUST00000052374|mus_mus|FALSE|FALSE (ssRNA)
RNA: GGGAGUUCUACAGUCCGACGAUCAGGGAGAUGAAGAUCUGCAAUCCAGACAGGAAGUACAUACCCACACACACACACCAAACCAACACAGUAUCAAAGGACCAAUAUGACACAGGAGACAAGACCCUCUCCCUUCCUCUGGUCCAACAGAGGAUUGAGCAUCA
B20: chr10:76735483:76735484:+_ENSG00000156650_ENST00000287239|hu_hu|motif|central (ssRNA)
RNA: GGGAGUUCUACAGUCCGACGAUCAGUGCAUGACUGUUUCUGAGAGACCUUUUUCCUUGGACGAUAGUGCUUUGAAAAGUCGGUAAUUUCACCUCGUGAUCUGCGACCAUCAGGUGAUGGUGUAAAAAACUUAGUAAGGCCAUCCAACAGAGGAUUGAGCAUCA
B21: chr1:163117127:163117128:-_ENSG00000143248_ENST00000313961|hu_mus|hu_hu_hu_mus_False|18_98 (ssRNA)
RNA: GGGAGUUCUACAGUCCGACGAUCUGCUACAAAGGAUGGAGGAAAUAUCACAGGGCAACUUUUGGAAGCCUGACCAGAUGACUACUUGAUUAGCUCCUUAUAAAAUUCAGAGCGCACAAAGCGAGGCAGAGAAUCCUUCUCCAUCAACAGAGGAUUGAGCAUCA
B22: chr2:9570881:9570882:+_ENSG00000119203_ENST00000238112|hu_mus|hu_hu_hu_mus_False|18_98 (ssRNA)
RNA: GGGAGUUCUACAGUCCGACGAUCACUUGUCUUCUGAAGAAACCAGGGCAGGGCUCCACAGUGAUCCAAAUGGAAAUGACUGAUCAACAGAAGGUCGAUCUCAGCUGGGUCGAUAAGAUCAAUAUAAGGAAGGGCAUCCAUUCCCAACAGAGGAUUGAGCAUCA

target: T1, UNK ZnF1-3; assay: nsRBNS (natural sequence RNA bind-n-seq); RBNS binding buffer (assumed for nsRBNS): 25 mM Tris pH 7.5, 150 mM KCl, 3 mM MgCl2, 0.01% Triton X-100, 500 ug/ml BSA, 20 U/ml SUPERase-In, 4 C; UNK is unkempt and MSI1 is Musashi-1; names of the RNAs are library labels; protein concentration not given here; high values mean tight binding

Point of comparison: B10, binding signal 1.01 enrichment R. Against it:
- B1 — lower, 0.889 enrichment R
- B2 — higher, 1.54 enrichment R
- B3 — higher, 1.1 enrichment R
- B4 — higher, 1.04 enrichment R
- B5 — lower, 0.848 enrichment R
- B6 — higher, 1.11 enrichment R
- B7 — higher, 2.16 enrichment R
- B8 — higher, 2.25 enrichment R
- B9 — higher, 1.1 enrichment R
- B11 — higher, 1.31 enrichment R
- B12 — lower, 0.87 enrichment R
- B13 — higher, 1.71 enrichment R
- B14 — lower, 0.689 enrichment R
- B15 — lower, 0.767 enrichment R
- B16 — higher, 1.16 enrichment R
- B17 — lower, 0.894 enrichment R
- B18 — higher, 1.95 enrichment R
- B19 — higher, 1.41 enrichment R
- B20 — lower, 0.739 enrichment R
- B21 — higher, 1.66 enrichment R
- B22 — higher, 1.53 enrichment R
